# Experimental data reported in the supplement of paper PMC10037445.
# Several values for one entry are separate records, joined by “and”; a condition that tells them apart may be missing. Identical values can stand only once. Over roughly 2,900 compounds, “NF-kB SEAP reporter activity, fold change vs agonist alone” has its median near 0.99; the highest 2% begin near 2.6. Some of the results follow.
# Experiments:
# RAW-Dual [1] = assay: NF-kB SEAP reporter activity, fold change vs agonist alone; higher = enhanced NF-kB activity
# Outline: (§1)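 After 50 nL of library stock was delivered by pin tool to RAW-Dual macrophages (50,000 cells/well, DMEM, 384-well plates), a PRR agonist was added 1 h later and the plates were kept at 37 °C, 5% CO2. Twenty hours later, IRF was read from supernatant by QuantiLuc luminescence and NF-κB by QuantiBlue absorbance at 620 nm. Reporter activity is stated as fold change over agonist-alone wells. Wells with IncuCyte confluency under 70% of agonist controls in both mask sets were counted as cytotoxic.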
# RAW-Dual [2] = assay: NF-kB SEAP reporter activity, fold change vs agonist alone; cytotoxicity flag (confluency mask): not cytotoxic; higher = enhanced NF-kB activity
# Outline: as §1
# RAW-Dual [3] = assay: NF-kB SEAP reporter activity, fold change vs agonist alone; cytotoxicity flag (confluency mask): cytotoxic (confluency <70% of control); higher = enhanced NF-kB activity
# Outline: as §1
# [4] = library stock concentration (final ~1000-fold dilution): 2 mM, cytotoxicity flag (confluency mask): not cytotoxic, agonist: Imiquimod (TLR7) […]
# [5] = library stock concentration (final ~1000-fold dilution): 2 mM, cytotoxicity flag (confluency mask): not cytotoxic, agonist: MPLA (TLR4) […]
# [6] = agonist: ODN 1826 (TLR9) 0.5 ug/mL
# [7] = agonist: Pam2CSK4 (TLR2/6) 0.1 ug/mL
# [8] = agonist: Pam3CSK4 (TLR2/1) 0.1 ug/mL
# [9] = library stock concentration (final ~1000-fold dilution): 10 mM, cytotoxicity flag (confluency mask): not cytotoxic, agonist: Imiquimod (TLR7) […]
# [10] = library stock concentration (final ~1000-fold dilution): 10 mM, cytotoxicity flag (confluency mask): not cytotoxic, agonist: MPLA (TLR4) […]
structure (smiles),measurement,setting,value
C=C(C)C1CCC2(C(=O)OC3OC(COC4OC(CO)C(OC5OC(C)C(O)C(O)C5O)C(O)C4O)C(O)C(O)C3O)CCC3(C)C(CCC4C5(C)CCC(OC6OCC(O)C(O)C6OC6OC(C)C(O)C(O)C6O)C(C)(CO)C5CCC43C)C12 (centres undefined),NF-kB SEAP reporter activity,RAW-Dual [1]; [4],0.946
same,NF-kB SEAP reporter activity,RAW-Dual [1]; [5],1.07
C=C(C)C1CCC2(C(=O)OC3OC(COC4OC(CO)C(OC5OC(C)C(O)C(O)C5O)C(O)C4O)C(O)C(O)C3O)CCC3(C)C(CCC4C5(C)CCC(OC6OCC(O)C(O)C6OC6OC(C)C(O)C(O)C6O)C(C)(CO)C5CCC43C)C12 (centres undefined) (library stock concentration (final ~1000-fold dilution): 2 mM),NF-kB SEAP reporter activity,RAW-Dual [2]; agonist: LPS (TLR4) 0.1 ug/mL,1
same,NF-kB SEAP reporter activity,RAW-Dual [2]; [6],1.09
same,NF-kB SEAP reporter activity,RAW-Dual [2]; [7],1.17
same,NF-kB SEAP reporter activity,RAW-Dual [2]; [8],1.16
Nc1ncnc2c1c(-c1cccc(OCc3ccccc3)c1)cn2C1CC(CN2CCCC2)C1 (centres undefined) (library stock concentration (final ~1000-fold dilution): 10 mM),NF-kB SEAP reporter activity,RAW-Dual [2]; agonist: LPS (TLR4) 0.1 ug/mL,0.239
same,NF-kB SEAP reporter activity,RAW-Dual [2]; [6],0.283
same,NF-kB SEAP reporter activity,RAW-Dual [2]; [7],0.401
same,NF-kB SEAP reporter activity,RAW-Dual [2]; [8],0.701
Nc1ncnc2c1c(-c1cccc(OCc3ccccc3)c1)cn2C1CC(CN2CCCC2)C1 (centres undefined),NF-kB SEAP reporter activity,RAW-Dual [1]; [9],1.13
same,NF-kB SEAP reporter activity,RAW-Dual [1]; [10],0.975
CNC(=O)CN1CCC(Oc2cc3c(Nc4cccc(Cl)c4F)ncnc3cc2OC)CC1,NF-kB SEAP reporter activity,RAW-Dual [1]; [9],0.727
same,NF-kB SEAP reporter activity,RAW-Dual [1]; [10],1.58
CNC(=O)CN1CCC(Oc2cc3c(Nc4cccc(Cl)c4F)ncnc3cc2OC)CC1 (library stock concentration (final ~1000-fold dilution): 10 mM),NF-kB SEAP reporter activity,RAW-Dual [2]; agonist: LPS (TLR4) 0.1 ug/mL,1.86
same,NF-kB SEAP reporter activity,RAW-Dual [2]; [6],0.866
same,NF-kB SEAP reporter activity,RAW-Dual [2]; [7],0.646
same,NF-kB SEAP reporter activity,RAW-Dual [2]; [8],1.14
Nc1nc(N)nc(-c2cc(Cl)ccc2Cl)n1 (library stock concentration (final ~1000-fold dilution): 2 mM),NF-kB SEAP reporter activity,RAW-Dual [2]; agonist: LPS (TLR4) 0.1 ug/mL,1.41
same,NF-kB SEAP reporter activity,RAW-Dual [2]; [6],1.28
same,NF-kB SEAP reporter activity,RAW-Dual [2]; [7],1.21
same,NF-kB SEAP reporter activity,RAW-Dual [2]; [8],1.26
Nc1nc(N)nc(-c2cc(Cl)ccc2Cl)n1,NF-kB SEAP reporter activity,RAW-Dual [1]; [4],0.858
same,NF-kB SEAP reporter activity,RAW-Dual [1]; [5],1.09
CCN1CCCC1CNC(=O)c1cc(S(=O)(=O)CC)c(N)cc1OC (centres undefined),NF-kB SEAP reporter activity,RAW-Dual [1]; [9],1.03
same,NF-kB SEAP reporter activity,RAW-Dual [1]; [10],1.06
CCN1CCCC1CNC(=O)c1cc(S(=O)(=O)CC)c(N)cc1OC (centres undefined) (library stock concentration (final ~1000-fold dilution): 10 mM),NF-kB SEAP reporter activity,RAW-Dual [2]; agonist: LPS (TLR4) 0.1 ug/mL,1.02
same,NF-kB SEAP reporter activity,RAW-Dual [2]; [6],1.01
same,NF-kB SEAP reporter activity,RAW-Dual [2]; [7],1.05
same,NF-kB SEAP reporter activity,RAW-Dual [2]; [8],1.04
COc1cc(N)c(Cl)cc1C(=O)NC1CCN(Cc2ccccc2)CC1 (library stock concentration (final ~1000-fold dilution): 10 mM),NF-kB SEAP reporter activity,RAW-Dual [2]; agonist: LPS (TLR4) 0.1 ug/mL,0.993
same,NF-kB SEAP reporter activity,RAW-Dual [2]; [6],0.668
same,NF-kB SEAP reporter activity,RAW-Dual [2]; [7],0.963
same,NF-kB SEAP reporter activity,RAW-Dual [2]; [8],1.11
COc1cc(N)c(Cl)cc1C(=O)NC1CCN(Cc2ccccc2)CC1,NF-kB SEAP reporter activity,RAW-Dual [1]; [9],1.28
same,NF-kB SEAP reporter activity,RAW-Dual [1]; [10],1.16
O=S(=O)(NCCN1CCNCC1)c1ccc(NC2CCCCC2)c(NCc2ccccc2)c1,NF-kB SEAP reporter activity,"RAW-Dual [1]; library stock concentration (final ~1000-fold dilution): 10 mM, cytotoxicity flag (confluency mask): cytotoxic (confluency <70% of control), agonist: Imiquimod (TLR7) […]",1.27
same,NF-kB SEAP reporter activity,"RAW-Dual [1]; library stock concentration (final ~1000-fold dilution): 10 mM, cytotoxicity flag (confluency mask): cytotoxic (confluency <70% of control), agonist: MPLA (TLR4) […]",2.03
O=S(=O)(NCCN1CCNCC1)c1ccc(NC2CCCCC2)c(NCc2ccccc2)c1 (library stock concentration (final ~1000-fold dilution): 10 mM),NF-kB SEAP reporter activity,RAW-Dual [3]; agonist: LPS (TLR4) 0.1 ug/mL,1.57
same,NF-kB SEAP reporter activity,RAW-Dual [3]; [6],1.13
same,NF-kB SEAP reporter activity,RAW-Dual [3]; [7],1.04
same,NF-kB SEAP reporter activity,RAW-Dual [3]; [8],1.73
O=C(Nc1cc(Cl)cc2c1[nH]c1cnccc12)c1cccnc1 (library stock concentration (final ~1000-fold dilution): 10 mM),NF-kB SEAP reporter activity,RAW-Dual [2]; agonist: LPS (TLR4) 0.1 ug/mL,0.856 and 0.725
same,NF-kB SEAP reporter activity,RAW-Dual [2]; [6],0.62 and 0.497
same,NF-kB SEAP reporter activity,RAW-Dual [2]; [7],0.406 and 0.309
same,NF-kB SEAP reporter activity,RAW-Dual [2]; [8],0.547 and 0.384
COc1cc(OC)c(C=CS(=O)(=O)Cc2ccc(OC)c(NCC(=O)O)c2)c(OC)c1 (library stock concentration (final ~1000-fold dilution): 10 mM),NF-kB SEAP reporter activity,RAW-Dual [2]; agonist: LPS (TLR4) 0.1 ug/mL,4.24
same,NF-kB SEAP reporter activity,RAW-Dual [2]; [6],3.24
same,NF-kB SEAP reporter activity,RAW-Dual [2]; [7],2.21
same,NF-kB SEAP reporter activity,RAW-Dual [2]; [8],2.56
COc1cc(OC)c(C=CS(=O)(=O)Cc2ccc(OC)c(NCC(=O)O)c2)c(OC)c1,NF-kB SEAP reporter activity,RAW-Dual [1]; [9],2.64
same,NF-kB SEAP reporter activity,RAW-Dual [1]; [10],2.27
COC1CC2CCC(C)C(O)(O2)C(=O)C(=O)N2CCCCC2C(=O)OC(C(C)CC2CCC(OC(=O)C(C)(CO)CO)C(OC)C2)CC(=O)C(C)C=C(C)C(O)C(OC)C(=O)C(C)CC(C)C=CC=CC=C1C (centres undefined) (library stock concentration (final ~1000-fold dilution): 10 mM),NF-kB SEAP reporter activity,RAW-Dual [2]; agonist: LPS (TLR4) 0.1 ug/mL,3.85
same,NF-kB SEAP reporter activity,RAW-Dual [2]; [6],3.11
same,NF-kB SEAP reporter activity,RAW-Dual [2]; [7],1.33
same,NF-kB SEAP reporter activity,RAW-Dual [2]; [8],2.09
COC1CC2CCC(C)C(O)(O2)C(=O)C(=O)N2CCCCC2C(=O)OC(C(C)CC2CCC(OC(=O)C(C)(CO)CO)C(OC)C2)CC(=O)C(C)C=C(C)C(O)C(OC)C(=O)C(C)CC(C)C=CC=CC=C1C (centres undefined),NF-kB SEAP reporter activity,RAW-Dual [1]; [9],2.36
same,NF-kB SEAP reporter activity,RAW-Dual [1]; [10],2.41
COc1cc(N2CCC(N3CCN(C)CC3)CC2)ccc1Nc1ncc(Cl)c(Nc2ccccc2S(=O)(=O)C(C)C)n1 (library stock concentration (final ~1000-fold dilution): 2 mM),NF-kB SEAP reporter activity,RAW-Dual [2]; agonist: LPS (TLR4) 0.1 ug/mL,1.66
same,NF-kB SEAP reporter activity,RAW-Dual [2]; [6],0.603
same,NF-kB SEAP reporter activity,RAW-Dual [2]; [7],0.757
same,NF-kB SEAP reporter activity,RAW-Dual [2]; [8],1.2
COc1cc(N2CCC(N3CCN(C)CC3)CC2)ccc1Nc1ncc(Cl)c(Nc2ccccc2S(=O)(=O)C(C)C)n1,NF-kB SEAP reporter activity,RAW-Dual [1]; [4],1.28
same,NF-kB SEAP reporter activity,RAW-Dual [1]; [5],0.939
CC1CCc2cc(F)cc3c(=O)c(C(=O)O)cn1c23 (centres undefined),NF-kB SEAP reporter activity,RAW-Dual [1]; [9],0.483
same,NF-kB SEAP reporter activity,RAW-Dual [1]; [10],0.674
CC1CCc2cc(F)cc3c(=O)c(C(=O)O)cn1c23 (centres undefined) (library stock concentration (final ~1000-fold dilution): 10 mM),NF-kB SEAP reporter activity,RAW-Dual [2]; agonist: LPS (TLR4) 0.1 ug/mL,1.02
same,NF-kB SEAP reporter activity,RAW-Dual [2]; [6],0.966
same,NF-kB SEAP reporter activity,RAW-Dual [2]; [7],0.993
same,NF-kB SEAP reporter activity,RAW-Dual [2]; [8],0.838
COc1ccccc1OCCNCC(O)COc1cccc2[nH]c3ccccc3c12 (centres undefined) (library stock concentration (final ~1000-fold dilution): 10 mM),NF-kB SEAP reporter activity,RAW-Dual [2]; agonist: LPS (TLR4) 0.1 ug/mL,0.6 and 0.708
same,NF-kB SEAP reporter activity,RAW-Dual [2]; [6],0.185 and 0.196
same,NF-kB SEAP reporter activity,RAW-Dual [2]; [7],0.801 and 0.766
same,NF-kB SEAP reporter activity,RAW-Dual [2]; [8],0.633 and 0.714
